# Test results as given in the supplement of paper PMC8728848.
# The list shows a part of the results.
# B1: CLEC7A (Homo sapiens), Q9BXN2 (protein)
# chain: MEYHPDLENLDEDGYTQLHFDSQSNTRIAVVSEKGSCAASPPWRLIAVILGILCLVILVIAVVLGTMAIWRSNSGSNTLENGYFLSRNKENHSQPTQSSLEDSVTPTKAVKTTGVLSSPCPPNWIIYEKSCYLFSMSLNSWDGSKRQCWQLGSNLLKIDSSNELGFIVKQVSSQPDNSFWIGLSRPQTEVPWLWEDGSTFSSNLFQIRTTATQENPSPNCVWIHVSVIYDQLCSVPSYSICEKKFSM
# What was measured:
# Experiment in all cases: glycan array binding signal (z-score within array); higher = stronger binding
# Conditions in all cases: glycan notation: IUPAC condensed, linker removed
# [1] = molecular target: Gal(b1-4)GlcNAc(b1-3)GalNAc
# In short: (§1)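 Arrays were curated from the Consortium for Functional Glycomics database, 3228 in total, and kept only where the protein sequence was available. Binding is expressed as a within-array Z-score. This score was averaged across arrays of the same protein sequence at different concentrations or buffers and across linkers, and negative values can be read as non-binding.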
# [2] = molecular target: Gal(b1-4)GlcNAc(b1-3)[Gal(b1-4)GlcNAc(b1-6)]GalNAc
# In short: as §1
# [3] = molecular target: Gal(b1-4)GlcNAc(b1-6)Gal(b1-4)GlcNAc(b1-6)GalNAc
# In short: as §1
# [4] = molecular target: Gal(b1-4)GlcNAc(b1-6)GalNAc
# In short: as §1
# [5] = molecular target: Gal(b1-4)GlcNAc(b1-6)[Gal(b1-3)]GalNAc
# In short: as §1
# Gal3S(b1-3)GalNAc = molecular target: Gal3S(b1-3)GalNAc
# In short: as §1
# Gal3S(b1-3)GlcNAc = molecular target: Gal3S(b1-3)GlcNAc
# In short: as §1
# [6] = molecular target: Gal3S(b1-3)[Fuc(a1-4)]GlcNAc
# In short: as §1
# Gal3S(b1-4)Glc = molecular target: Gal3S(b1-4)Glc
# In short: as §1
# Gal3S(b1-4)Glc6S = molecular target: Gal3S(b1-4)Glc6S
# In short: as §1
# Gal3S(b1-4)GlcNAc = molecular target: Gal3S(b1-4)GlcNAc
# In short: as §1
# Gal3S(b1-4)GlcNAc6S = molecular target: Gal3S(b1-4)GlcNAc6S
# In short: as §1
# Gal3S6S(b1-4)GlcNAc = molecular target: Gal3S6S(b1-4)GlcNAc
# In short: as §1
# Gal3S6S(b1-4)GlcNAc6S = molecular target: Gal3S6S(b1-4)GlcNAc6S
# In short: as §1
# Gal4S(b1-4)GlcNAc = molecular target: Gal4S(b1-4)GlcNAc
# In short: as §1
# Gal4S6S(b1-4)GlcNAc = molecular target: Gal4S6S(b1-4)GlcNAc
# In short: as §1
# Gal6S(b1-4)Glc = molecular target: Gal6S(b1-4)Glc
# In short: as §1
# Gal6S(b1-4)Glc6S = molecular target: Gal6S(b1-4)Glc6S
# In short: as §1
# Gal6S(b1-4)GlcNAc = molecular target: Gal6S(b1-4)GlcNAc
# In short: as §1
# GalNAc(a1-3)Gal = molecular target: GalNAc(a1-3)Gal
# In short: as §1
# GalNAc(a1-3)GalNAc = molecular target: GalNAc(a1-3)GalNAc
# In short: as §1
# [7] = molecular target: GalNAc(b1-3)Gal(a1-4)Gal(b1-4)GlcNAc
# In short: as §1
# GalNAc(b1-3)GalNAc = molecular target: GalNAc(b1-3)GalNAc
# In short: as §1
# GalNAc(b1-4)GlcNAc = molecular target: GalNAc(b1-4)GlcNAc
# In short: as §1
# Glc(a1-4)Glc = molecular target: Glc(a1-4)Glc
# In short: as §1
# Glc(a1-6)Glc(a1-6)Glc = molecular target: Glc(a1-6)Glc(a1-6)Glc
# In short: as §1
# Glc(b1-4)Glc = molecular target: Glc(b1-4)Glc
# In short: as §1
# Glc(b1-6)Glc = molecular target: Glc(b1-6)Glc
# In short: as §1
# GlcA(b1-3)Gal = molecular target: GlcA(b1-3)Gal
# In short: as §1
# GlcA(b1-6)Gal = molecular target: GlcA(b1-6)Gal
# In short: as §1
# [8] = molecular target: GlcNAc(a1-3)Gal(b1-4)GlcNAc
# In short: as §1
# [9] = molecular target: GlcNAc(a1-6)Gal(b1-4)GlcNAc
# In short: as §1
# [10] = molecular target: GlcNAc(b1-2)Gal(b1-3)GalNAc
# In short: as §1
# [11] = molecular target: GlcNAc(b1-2)Man(a1-3)[GlcNAc(b1-2)Man(a1-6)]Man(b1-4)GlcNAc(b1-4)GlcNAc
# In short: as §1
# GlcNAc(b1-3)Gal = molecular target: GlcNAc(b1-3)Gal
# In short: as §1
# [12] = molecular target: GlcNAc(b1-3)Gal(b1-3)GalNAc
# In short: as §1
# GlcNAc(b1-3)Gal(b1-4)Glc = molecular target: GlcNAc(b1-3)Gal(b1-4)Glc
# In short: as §1
# [13] = molecular target: GlcNAc(b1-3)Gal(b1-4)GlcNAc
# In short: as §1
# [14] = molecular target: GlcNAc(b1-3)Gal(b1-4)GlcNAc(b1-3)Gal(b1-4)GlcNAc
# In short: as §1
# GlcNAc(b1-3)GalNAc = molecular target: GlcNAc(b1-3)GalNAc
# In short: as §1
# [15] = molecular target: GlcNAc(b1-3)[GlcNAc(b1-6)]Gal(b1-4)GlcNAc
# In short: as §1
# [16] = molecular target: GlcNAc(b1-3)[GlcNAc(b1-6)]GalNAc
# In short: as §1
# [17] = molecular target: GlcNAc(b1-3)[GlcNAc(b1-6)]GlcNAc(b1-4)GlcNAc
# In short: as §1
# [18] = molecular target: GlcNAc(b1-4)Gal(b1-4)GlcNAc
# In short: as §1
# [19] = molecular target: GlcNAc(b1-4)GlcNAc(b1-4)GlcNAc
# In short: as §1
binder,measurement,setting,value
B1,glycan array binding signal (z-score),[1],0.267
same,glycan array binding signal (z-score),[2],-0.587
same,glycan array binding signal (z-score),[3],-0.596
same,glycan array binding signal (z-score),[4],-1.14
same,glycan array binding signal (z-score),[5],-0.032
same,glycan array binding signal (z-score),Gal3S(b1-3)GalNAc,0.674
same,glycan array binding signal (z-score),Gal3S(b1-3)GlcNAc,0.073
same,glycan array binding signal (z-score),[6],0.601
same,glycan array binding signal (z-score),Gal3S(b1-4)Glc,-0.123
same,glycan array binding signal (z-score),Gal3S(b1-4)Glc6S,1.16
same,glycan array binding signal (z-score),Gal3S(b1-4)GlcNAc,0.507
same,glycan array binding signal (z-score),Gal3S(b1-4)GlcNAc6S,1.21
same,glycan array binding signal (z-score),Gal3S6S(b1-4)GlcNAc,0.674
same,glycan array binding signal (z-score),Gal3S6S(b1-4)GlcNAc6S,5.19
same,glycan array binding signal (z-score),Gal4S(b1-4)GlcNAc,0.122
same,glycan array binding signal (z-score),Gal4S6S(b1-4)GlcNAc,0.177
same,glycan array binding signal (z-score),Gal6S(b1-4)Glc,-0.519
same,glycan array binding signal (z-score),Gal6S(b1-4)Glc6S,0.699
same,glycan array binding signal (z-score),Gal6S(b1-4)GlcNAc,-0.797
same,glycan array binding signal (z-score),GalNAc(a1-3)Gal,-0.246
same,glycan array binding signal (z-score),GalNAc(a1-3)GalNAc,-0.246
same,glycan array binding signal (z-score),[7],0.773
same,glycan array binding signal (z-score),GalNAc(b1-3)GalNAc,-0.124
same,glycan array binding signal (z-score),GalNAc(b1-4)GlcNAc,0.478
same,glycan array binding signal (z-score),Glc(a1-4)Glc,-0.126
same,glycan array binding signal (z-score),Glc(a1-6)Glc(a1-6)Glc,-0.407
same,glycan array binding signal (z-score),Glc(b1-4)Glc,0.288
same,glycan array binding signal (z-score),Glc(b1-6)Glc,-0.161
same,glycan array binding signal (z-score),GlcA(b1-3)Gal,-0.277
same,glycan array binding signal (z-score),GlcA(b1-6)Gal,0.628
same,glycan array binding signal (z-score),[8],1.09
same,glycan array binding signal (z-score),[9],-1.17
same,glycan array binding signal (z-score),[10],-0.05
same,glycan array binding signal (z-score),[11],-0.366
same,glycan array binding signal (z-score),GlcNAc(b1-3)Gal,-0.583
same,glycan array binding signal (z-score),[12],-0.989
same,glycan array binding signal (z-score),GlcNAc(b1-3)Gal(b1-4)Glc,-0.106
same,glycan array binding signal (z-score),[13],-0.046
same,glycan array binding signal (z-score),[14],-0.528
same,glycan array binding signal (z-score),GlcNAc(b1-3)GalNAc,3.29
same,glycan array binding signal (z-score),[15],-0.12
same,glycan array binding signal (z-score),[16],-0.939
same,glycan array binding signal (z-score),[17],-0.578
same,glycan array binding signal (z-score),[18],-0.062
same,glycan array binding signal (z-score),[19],-0.356
